The values that follow come from patent US20240255507A1.

What all share (experiment): ELISA, antigen coated, binder 1 µg/mL, chemiluminescence
What all share (settings): remark: other sources report otherwise
For orientation: An ELISA detects its analyte on a solid surface through an enzyme-linked reagent.

Experiment [1] concerns the target Hp wild-type RBD (coronavirus Hp strain (Hibecovirus subgenus)).
For experiment [2], the target named is Zaria wild-type RBD (coronavirus Zaria strain (Hibecovirus subgenus)).
The target of experiment [3] is GCCDC1 wild-type RBD (coronavirus GCCDC1 strain (Nobecovirus subgenus)).

B1: BD23 (antibody)
heavy: QVQLVQSGSELKKPGASVKVSCKASGYTFTSYAMNWVRQAPGQGLEWMGWINTNTGNPTYAQGFTGRFVFSLDTSVSTAYLQISSLKAEDTAVYYCARPQGGSSWYRDYYYGMDVWGQGTTVTVSS[sequence of human IgG1 constant region not given]
light: [sequence of about 100 residues not given][sequence of about 100 residues not given]
On to B1, for which the values for the signal intensity in experiment [1], in experiment [2] and in experiment [3] were 70, 240 and 70, respectively.
